Our source for the Potency values is PubChem BioAssay AID360 (National Center for Advancing Translational Sciences (NCATS), 2006).

Hit rate of the full screen: of about 48,000 compounds, about 550 (1.1%) were called active. About 4% were inconclusive and are not listed. Cut-off read from the data, not from the text of the source: active = potency below about 15 µM; inconclusive = mostly about 16 µM to 33 µM; inactive = weaker than that. This is one part of the list.
Potency is the fitted concentration of half-maximal effect.

UniProt P04062, sequence (P04062 whole entry, looked up): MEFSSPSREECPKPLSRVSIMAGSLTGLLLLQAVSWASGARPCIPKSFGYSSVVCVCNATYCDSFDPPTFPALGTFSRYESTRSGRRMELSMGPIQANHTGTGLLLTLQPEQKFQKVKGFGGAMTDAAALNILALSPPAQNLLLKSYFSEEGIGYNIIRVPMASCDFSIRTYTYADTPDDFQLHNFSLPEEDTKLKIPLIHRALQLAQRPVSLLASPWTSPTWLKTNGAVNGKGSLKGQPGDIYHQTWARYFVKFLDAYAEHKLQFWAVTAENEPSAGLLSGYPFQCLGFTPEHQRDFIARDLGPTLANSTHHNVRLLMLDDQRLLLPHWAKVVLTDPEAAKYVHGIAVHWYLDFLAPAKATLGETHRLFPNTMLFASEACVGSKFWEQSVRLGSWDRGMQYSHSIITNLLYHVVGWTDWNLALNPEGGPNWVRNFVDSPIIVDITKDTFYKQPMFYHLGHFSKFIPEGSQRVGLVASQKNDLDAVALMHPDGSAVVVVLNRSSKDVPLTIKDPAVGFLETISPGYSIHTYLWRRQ

This experiment addresses Lysosomal acid glucosylceramidase (Homo sapiens) (UniProt P04062). The experiment in a line: Glucocerebrosidase.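 Note: the screen sought inhibitors.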 Conditions: purified enzyme, resorufin glucoside fluorescence (screen aimed at inhibitors), 20 min; series mostly up to 77 µM. An outline of the steps:
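Compounds titrated against 0.2 nM normal enzyme, 30 uM resorufin beta-D-glucopyranoside substrate, citrate/phosphate buffer with taurocholate and tween-20, pH 5.9. Reaction ran 20 min at room temperature; fluorescence (Ex 548/Em 600) gave AC50.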
For the compound `CCOc1cc2[nH]c(=S)n(CCCN3CCOCC3)c(=O)c2cc1OCC`, the Potency is inactive: > 76.9 µM. Regarding `CN=CC1=C(O)c2ccccc2C1=O`, the Potency is inactive: > 76.9 µM.

With `COc1ccccc1NC(=O)Cc1nn(C)c(=O)c2ccccc12`, the Potency is inactive: > 76.9 µM. In the case of `CC(=O)c1cc(-c2ccccc2)n(CCC(=O)NCc2cccs2)c1C` it was inactive: > 76.9 µM; in that of `CC(C)c1nnc(NC(=O)CCS(=O)(=O)c2nc(-c3cccs3)cc(C(F)(F)F)n2)s1`, inactive: > 76.9 µM; in that of `CSCCC(NC(=O)c1ccc(C)o1)C(=O)O` (centres undefined), inactive: > 76.9 µM. In the case of `CC1=C(C(=O)N2CCOCC2)C(c2ccsc2)C2=C(CCCC2=O)N1` (centres undefined), the Potency was inactive: > 76.9 µM. In the case of `CN(C)S(=O)(=O)N1CCC(c2ccc(F)cc2)C(COc2ccc3c(c2)OCO3)C1` (centres undefined), the Potency was inactive: > 76.9 µM. Turning to `COc1ccc(OCC(=O)Nc2ccccc2OC(F)F)cc1`, the Potency is inactive: > 76.9 µM.

For the compound `COCCOC(=O)/C=C1/NC(=O)CS1`, the Potency is inactive: > 76.9 µM.

On to `CC1(C)Cc2ccccc2-c2nnc(-c3ccccn3)n21`, for which the Potency is inactive: > 76.9 µM. As to `O=C(c1ccco1)N1CCN(c2ncnc3c2[nH]c2ccc(Br)cc23)CC1`, the Potency was inactive: > 76.9 µM. Turning to `CCOc1ccccc1NC1=NCC(=O)N1Cc1ccc(F)cc1`, the Potency is inactive: > 76.9 µM. With `CCOC(=O)C(NC(C)=O)C(OC(C)=O)c1cccc(N(CCO)CCO)c1` (centres undefined), the Potency is inactive: > 76.9 µM. In the case of `CCOC(=O)c1sc(C)c2c(=O)n(CCCN3CCOCC3)cnc12`, the Potency is inactive: > 76.9 µM. `CCOC(=O)c1c(C)[nH]c(C)c1C(=O)CSc1nc(N)cc(N)n1`: the Potency is inactive: > 76.9 µM.

As for `CCOc1ccc(NC(=O)C(C)Sc2nnnn2C)cc1` (centres undefined), the Potency was inactive: > 76.9 µM. In the case of `CSCC[C@H](NC(=O)OC(C)(C)C)c1nnc(SCC(=O)N(C)C)o1`, the Potency was inactive: > 76.9 µM. For `Cc1ccc(-c2cc(C(=O)O)n[nH]2)o1`, the Potency was inactive: > 76.9 µM.

Take `Cn1c(=O)[nH]c(=O)c2c1nc(CN1CCN(c3ccc(F)cc3)CC1)n2CCCc1ccccc1`: the Potency is inactive: > 76.9 µM.

For `Cc1cc(NC(=O)c2cc(S(=O)(=O)N3CCCCC3)ccc2C)n(-c2ccccn2)n1`, the Potency is inactive: > 76.9 µM. As to `CS(=O)(=O)N(CC(=O)Nc1ccc2c(c1)OCO2)Cc1ccccc1`, the Potency is inactive: > 76.9 µM. As to `CCOC(=O)Cc1csc(NC(=O)c2c(O)c3ccccc3n(C)c2=O)n1`, the Potency is inactive: > 76.9 µM. Turning to `COCCn1c(C)cc(C(=O)CSc2nnc(C)s2)c1C`, the Potency is inactive: > 76.9 µM. Regarding `COc1cc(NS(=O)(=O)c2ccc(NC(=O)COc3ccccc3Cl)cc2)nc(OC)n1`, the Potency is inactive: > 76.9 µM.

With `CCCN(CC(=O)c1cc(C)n(C)c1C)S(=O)(=O)c1cccc(C(F)(F)F)c1`, the Potency was inactive: > 76.9 µM.

In the case of `Cc1ccc(Nc2nc(N)nc(CN3CCN(C(=O)c4ccco4)CC3)n2)cc1Cl`, the Potency was inactive: > 76.9 µM. With `CCN(CC)c1ccc(NC(=O)CSc2nc3ccccc3c(=O)[nH]2)cc1`, the Potency was inactive: > 76.9 µM.

On to `CCC1c2ccc(C)n2CCN1C(=O)Nc1ccccc1OC` (centres undefined), for which the Potency is inactive: > 76.9 µM. Consider `CCCCCCn1c(N2CCN(c3ccccc3)CC2)nc2c1c(=O)[nH]c(=O)n2C`, for which the Potency was inactive: > 76.9 µM. In the case of `Cc1ccccc1NC(=O)Cn1nnc(-c2ccc(N3CCOCC3)cc2)n1`, the Potency is inactive: > 76.9 µM.

As for `COc1cccc(C2C(C(=O)c3cccs3)=C(O)C(=O)N2CCN(C)C)c1OC` (centres undefined), the Potency was inactive: > 76.9 µM.

On to `COc1cc(C2C3C(C)N(C)C(=O)N(C)C3N(C)C(=O)N2C)ccc1O` (centres undefined), for which the Potency is inactive: > 76.9 µM. In the case of `COc1ccccc1CN(C(=O)c1ccco1)C(C(=O)NC1CCCC1)c1ccncc1` (centres undefined) it was inactive: > 76.9 µM.

On to `O=C1Nc2ccc(Br)cc2C1(O)Cc1ccncc1` (centres undefined), for which the Potency was inactive: > 76.9 µM. Turning to `Cc1cc(C(F)(F)F)nn1CC(=O)N1CCCCC1C` (centres undefined), the Potency was inactive: > 76.9 µM.

Consider `Cc1ccccc1N1C(=O)N(c2cccc(C(F)(F)F)c2)C2CS(=O)(=O)CC21` (centres undefined), for which the Potency is inactive: > 76.9 µM. In the case of `O=C(NCc1ccco1)C(c1cccnc1)N(C(=O)Cn1nnc2ccccc21)c1ccccc1` (centres undefined) it was inactive: > 76.9 µM; in that of `COCC(=O)N(Cc1cc2ccc(C)cc2[nH]c1=O)c1ccc(OC)cc1`, inactive: > 76.9 µM. For the compound `CCOC(=O)c1cc(-c2ccccc2)n(CC(=O)O)c1C`, the Potency was inactive: > 76.9 µM.

In the case of `O=C(NC1CCCC1)c1ccc(CS(=O)(=O)c2cccc(C(F)(F)F)c2)o1`, the Potency was inactive: > 76.9 µM. In the case of `Cn1nc(-c2ccccc2F)c2cc(C(=O)N3CCN(C(=O)c4ccco4)CC3)sc21`, the Potency was inactive: > 76.9 µM. Turning to `COc1cccc(-c2nn(C)c3sc(C(=O)NCc4ccc(C)o4)cc23)c1`, the Potency is inactive: > 76.9 µM. `O=C(Nn1cnnc1)c1cc2c(s1)CCCC2`: the Potency was inactive: > 76.9 µM. Take `COc1cc(C2=NOC(C(=O)NCc3ccc(F)cc3)C2)cc(OC)c1OC` (centres undefined): the Potency was inactive: > 76.9 µM. `COc1ccc(S(=O)(=O)N2CCCC2C(=O)NCc2cccs2)cc1` (centres undefined): the Potency is inactive: > 76.9 µM. Take `O=C1CNC(=O)/C1=C\N1CCCCC1`: the Potency entry is “inactive”. In the case of `CCOC(=O)N1CCC(Nc2ncnc3c2cnn3-c2ccccc2)CC1` it was “inactive”; in that of `COc1ccc(NC(=O)NCc2cccnc2)cc1OC`, inactive: > 76.9 µM; in that of `Cc1nn(CC(=O)Nc2ccc3c(c2)nc(CN2CCCCC2)n3C)c(=O)c2ccccc12`, inactive: > 76.9 µM.

As to `O=C(NCc1ccccc1Cl)c1cnn2cccnc12`, the Potency is inactive: > 76.9 µM. On to `c1ccc(-c2noc(CN3CCN(C(c4ccccc4)c4ccccc4)CC3)n2)cc1`, for which the Potency is inactive: > 76.9 µM. In the case of `CC1=C(C(=O)Nc2ccccc2)C(c2ccco2)n2ncnc2N1` (centres undefined) it was inactive: > 76.9 µM; in that of `CCN1CCN(CC(O)COc2cccc(OC)c2)CC1` (centres undefined), inactive: > 76.9 µM. Take `Cc1ccc(OCC(=O)Nc2ccc(-c3nnc(-c4ccco4)o3)cc2)cc1`: the Potency is inactive: > 76.9 µM. In the case of `C=CCNC(=O)c1ccc2c(c1)nnn2C` it was inactive: > 76.9 µM; in that of `CCOc1ccc(-n2cnnn2)cc1S(=O)(=O)Nc1c(C)cccc1C`, inactive: > 76.9 µM; in that of `O=C(CSc1nnc(CNC(=O)c2ccco2)o1)c1ccc(Cl)cc1`, “inactive”. `COC(=O)CSc1nnc(SCc2ccc(OC)cc2)s1`: the Potency was inactive: > 76.9 µM. As for `Cc1ccc(-c2nnn(CC(=O)N(CC(=O)NCC3CCCO3)c3ccc(F)c(Cl)c3)n2)o1` (centres undefined), the Potency is inactive: > 76.9 µM. Regarding `Cc1[nH]c(=O)[nH]c(=O)c1CSc1nnc([C@@H](NC(=O)OC(C)(C)C)C(C)C)o1`, the Potency is inactive: > 76.9 µM.

As to `COCCn1c(SCC(=O)OC(C)C)nnc1-c1ccccc1`, the Potency is inactive: > 76.9 µM. Take `CCn1c2ccccc2c2nnc(SCC(=O)Nc3cc(C)on3)nc21`: the Potency was inactive: > 76.9 µM. Take `CCc1nnc(NC(=O)CSc2nnc(-c3ccccc3NC(=O)c3ccccc3)o2)s1`: the Potency is inactive: > 76.9 µM. Turning to `CCn1nc(NC(=O)c2cccnc2)c2cc3cccc(C)c3nc21`, the Potency is inactive: > 76.9 µM.

On to `NC(=O)C1CC(=O)N(Cc2ccc3c(c2)OCO3)C(=Nc2ccccc2)S1` (centres undefined), for which the Potency was inactive: > 76.9 µM.

In the case of `O=S(=O)(c1ccccc1)c1nc(-c2ccco2)oc1N1CCOCC1`, the Potency is inactive: > 76.9 µM.

Take `O=C(CSc1nnc(-c2ccco2)n1Cc1ccccc1)c1ccccc1`: the Potency is inactive: > 76.9 µM. For the compound `O=C(CC(C(=O)N1CCc2ccccc21)n1ccnc1)NCC1CCCO1` (centres undefined), the Potency was inactive: > 76.9 µM. For `Clc1ccccc1-c1nnc2sc(-c3cccs3)nn12`, the Potency is inactive: > 76.9 µM. Consider `O=C(CCSc1nnc(-c2ccncc2)o1)Nc1ccc(Cl)cc1`, for which the Potency was inactive: > 76.9 µM. `COc1ccc(C(CNC(=O)COc2ccccc2OC)N(C)C)cc1OC` (centres undefined): the Potency is inactive: > 76.9 µM. Regarding `CC(C)N1C(=O)C2C(C(=O)NC3CCCCC3)C3C=CC2(O3)C1C(=O)NC1CCCCC1` (centres undefined), the Potency was inactive: > 76.9 µM. As for `CCn1cc(C(=O)NCc2ccco2)c(=O)c2cc(S(=O)(=O)N3CCCCCC3)ccc21`, the Potency was inactive: > 76.9 µM. In the case of `O=C(O)CCC(=O)c1ccc2c(c1)OCCCO2` it was inactive: > 76.9 µM; in that of `Cn1c(=O)c2c(nc(OC/C=C/c3ccccc3)n2C)n(C)c1=O`, inactive: > 76.9 µM; in that of `CCN(CCCNC(=O)C1CCN(S(=O)(=O)N2CCC3(CC2)OCCO3)CC1)c1ccccc1`, inactive: > 76.9 µM.

In the case of `COc1ccc(C(=O)N(CCCO)Cc2cc3c(C)ccc(C)c3[nH]c2=O)cc1OC`, the Potency is inactive: > 76.9 µM. On to `Cn1c(=O)c2c(nc(-n3ccnc3)n2C)n(C)c1=O`, for which the Potency is inactive: > 76.9 µM.

As for `CC(C)C(c1nnnn1C1CCCCC1)N1CCN(c2ncccn2)CC1` (centres undefined), the Potency was inactive: > 76.9 µM. In the case of `CC(=O)Oc1ccc(C(=O)O)cc1OC(C)=O` it was inactive: > 76.9 µM. In the case of `Cc1sc2nc3n(c(=O)c2c1C)Cc1ccccc1-3` it was inactive: > 76.9 µM; in that of `Cc1ccc(C)c(NC(=O)CCN2CCOCC2)c1`, inactive: > 76.9 µM; in that of `O=C(CSc1nc2c(c(=O)[nH]1)CCC2)Nc1cccc(Cl)c1`, “inactive”.

Regarding `Cn1c(COc2ccccc2)nnc1SCC(=O)Nc1ccc(N2CCOCC2)c(Cl)c1`, the Potency is inactive: > 76.9 µM. For `Cc1ccccc1-c1ccc(Nc2ccc(C(=O)N3CCOCC3)cc2)nn1`, the Potency was inactive: > 76.9 µM. Regarding `O=C(O)C1CSC2(c3ccc4c(c3)OCCO4)CCC(=O)N12` (centres undefined), the Potency is inactive: > 76.9 µM. With `COc1ccc(OC)c(S(=O)(=O)N2CCc3ccccc32)c1`, the Potency was inactive: > 76.9 µM. In the case of `Cc1cc(C(=O)CN2C(=O)c3ccccc3S2(=O)=O)c(C)n1-c1ccccc1` it was inactive: > 76.9 µM.
